In PubChem BioAssay AID588591 (National Center for Advancing Translational Sciences (NCATS), 2011):
Out of some 390,000 compounds screened, about 4,700 (1.2%) were called active. The shares of active, inactive and inconclusive entries below differ from those in the screen. Calls come from the whole dose curve; as a rule, active = well fitted inhibition curve with a large enough effect; inconclusive = small, poorly fitted or top-dose-only effect, or another doubt; inactive = no such curve, though single readings can be large or run the other way. Where the call is inconclusive, the potency comes from a doubtful curve fit.

The molecules below were run against DNA polymerase eta (Homo sapiens) (UniProt Q9Y253) (assay: qHTS for Inhibitors of Polymerase Eta). Settings: recombinant Pol eta, fluorescent DNA replication assay; series mostly up to 114 µM.
Chain of UniProt Q9Y253 (Q9Y253 whole entry, looked up): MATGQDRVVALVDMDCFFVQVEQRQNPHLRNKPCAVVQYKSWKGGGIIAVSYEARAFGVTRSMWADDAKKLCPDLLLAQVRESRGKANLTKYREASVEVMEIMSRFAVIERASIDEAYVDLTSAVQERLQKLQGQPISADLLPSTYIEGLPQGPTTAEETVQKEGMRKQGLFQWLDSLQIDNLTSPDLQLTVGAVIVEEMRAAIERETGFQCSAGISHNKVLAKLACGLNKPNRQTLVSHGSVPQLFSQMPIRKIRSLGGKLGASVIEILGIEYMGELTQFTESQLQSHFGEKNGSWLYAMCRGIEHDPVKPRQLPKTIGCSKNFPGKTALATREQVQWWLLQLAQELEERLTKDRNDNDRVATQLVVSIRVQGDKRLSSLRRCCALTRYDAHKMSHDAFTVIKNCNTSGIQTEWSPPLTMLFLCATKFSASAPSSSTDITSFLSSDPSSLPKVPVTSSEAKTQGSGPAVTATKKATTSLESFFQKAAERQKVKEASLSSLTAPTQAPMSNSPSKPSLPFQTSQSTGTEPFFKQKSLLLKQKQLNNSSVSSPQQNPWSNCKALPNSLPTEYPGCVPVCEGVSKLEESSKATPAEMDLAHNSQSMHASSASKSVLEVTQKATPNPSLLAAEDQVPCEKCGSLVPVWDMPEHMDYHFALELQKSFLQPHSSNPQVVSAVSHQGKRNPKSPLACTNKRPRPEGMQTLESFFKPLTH
Summary of the method: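 Pol eta at 10 nM preincubated with compounds 15 min at room temperature; reaction started with fluorescent substrate (50 nM final) and read kinetically at 0 and 10 min.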
Potency is the fitted concentration of half-maximal effect; tags give direction and shape of the fitted curve.

SMILES | Potency
O=C1NC(=O)N(CC2CCCO2)C(=O)/C1=C/c1cccs1 (centres undefined) | inconclusive: 44.7 µM [inhibitor, partial curve]
COC1C(OC(=O)c2ccc(C)[nH]2)C(O)C(Oc2ccc3c(O)c(NC(=O)c4ccc(O)c(CC=C(C)C)c4)c(=O)oc3c2Cl)OC1(C)C (centres undefined) | inconclusive: 89.1 µM [inhibitor, single point]
O=c1c2ccccc2nc(/C=C/c2ccc(O)cc2)n1-c1cccc(O)c1 | active: 56.2 µM
O=C1NC(=O)N(Cc2ccc(F)cc2)C(=O)/C1=C\c1ccc(N2CCCC2)cc1 | active: 31.6 µM
Cc1cc(/C=C2/C(=O)NC(=O)N(c3ccccc3)C2=O)c(C)n1-c1ccc(F)cc1 | inconclusive: 28.2 µM [inhibitor, single point]
C[C@]12CC[C@@H](O)CC1=CCC1C2CC[C@@]2(C)C1C[C@@H](F)[C@@H]2O (some centres undefined) | inactive
CCn1nc(-c2cccs2)nc2c(=O)n(C)c(=O)nc1-2 | active: 0.794 µM
Cc1ccc(F)cc1NC(=O)c1ccc(Cn2nc(N3CCN(c4ccccc4)CC3)ccc2=O)o1 | active: 79.4 µM
NCC(CP(=O)(O)O)c1ccc(Cl)cc1 (centres undefined) | inconclusive: 0.158 µM [inhibitor, full curve, poor fit]
O=C1c2cccc3cccc(c23)C(=O)N1CCN1CCN(C(=S)Nc2ccccc2)CC1 | inconclusive: 22.4 µM [inhibitor, partial curve]
CCOC(=O)C1CCCN(c2ccc([N+](=O)[O-])c3nonc23)C1 (centres undefined) | active: 35.5 µM
COc1ccc2c(c1)C1(C(=O)O)CC=CCC1(C(=O)O)C2 (centres undefined) | inactive
CC(=NC1CCN(Cc2ccccc2)CC1)c1c(O)n(C)c(=O)n(C)c1=O | inactive
O=C(O)c1ccccc1-c1ccc(C=C2C(=O)N(c3ccccc3)C(=S)N(c3ccccc3)C2=O)o1 | active: 17.8 µM
CCOC(=O)c1c(-n2c(C)cc(/C=C3/C(=O)NC(=O)N(CC)C3=O)c2C)sc2c1CCCC2 | inconclusive: 35.5 µM [inhibitor, full curve, poor fit]
Cc1ccc(-c2nc(CN3C(=O)CN=C(c4ccccc4)c4cc(Cl)ccc43)c(C)o2)cc1 | inconclusive: 56.2 µM [inhibitor, partial curve, poor fit]
CCCCCn1c(N)c(C(=O)NCCN2CCOCC2)c2nc3ccccc3nc21 | inconclusive: 35.5 µM [inhibitor, partial curve]
Cc1ccc(/C=C2\C(=O)NC(=S)N(c3cccc(F)c3)C2=O)o1 | active: 7.08 µM
CC(C)(C)c1ccc(-c2c(C(=O)O)c(C(=O)O)c3n2CSC3)cc1 | inconclusive: 79.4 µM [inhibitor, partial curve, poor fit]
